Reference: the CheMixHub viscosity set

SMILES	viscosity (298.15 K, 101 kPa)	viscosity (298.15 K, 101.33 kPa)	viscosity (303.15 K, 101 kPa)	viscosity (303.15 K, 101.33 kPa)	viscosity (308.15 K, 101 kPa)	viscosity (308.15 K, 101.33 kPa)	viscosity (313.15 K, 101.33 kPa)	viscosity (313.15 K, 101 kPa)
CCCCCCO	4.48 ± 0.03 mPa·s [study A] and 4.329 ± 0.11 mPa·s [study B] and 4.611 ± 0.042 mPa·s [study C] and 4.48 ± 0.01 mPa·s [study D]	4.317 ± 0.097 mPa·s, 4.486 ± 0.041 mPa·s (2×), 4.5 ± 0.039 mPa·s, 4.274 ± 0.094 mPa·s, 4.216 ± 0.18 mPa·s (2×), 4.394 ± 0.051 mPa·s, 4.574 ± 0.2 mPa·s [several studies]	3.765 ± 0.32 mPa·s, 3.818 ± 0.035 mPa·s, 3.765 ± 0.03 mPa·s, 3.807 ± 0.047 mPa·s (2×), 3.675 ± 0.022 mPa·s, 3.701 ± 0.11 mPa·s, 3.883 ± 0.13 mPa·s, 3.751 ± 0.75 mPa·s, 3.537 ± 0.35 mPa·s, 3.675 ± 0.065 mPa·s [several studies]	3.818 ± 0.035 mPa·s, 3.769 ± 0.034 mPa·s, 3.67 ± 0.083 mPa·s, 3.603 ± 0.08 mPa·s, 3.567 ± 0.16 mPa·s (2×), 3.733 ± 0.044 mPa·s, 3.861 ± 0.089 mPa·s, 3.781 ± 0.17 mPa·s, 3.861 ± 0.034 mPa·s, 3.792 ± 0.049 mPa·s, 3.751 ± 0.043 mPa·s, 3.97 ± 0.16 mPa·s [several studies]	3.604 ± 0.72 mPa·s [study A] and 3.34 ± 0.03 mPa·s [study B] and 3.3 ± 0.28 mPa·s [study C] and 3.107 ± 0.064 mPa·s [study D] and 3.391 ± 0.03 mPa·s [study E] and 3.33 ± 0.01 mPa·s [study F] and 3.108 ± 0.019 mPa·s [study G]	3.13 ± 0.072 mPa·s [study A] and 3.022 ± 0.068 mPa·s [study B] and 2.766 ± 0.12 mPa·s [study C] and 3.252 ± 0.14 mPa·s [study D] and 2.766 ± 0.12 mPa·s [study E] and 3.213 ± 0.038 mPa·s [study F]	2.934 ± 0.027 mPa·s [study A] and 3.11 ± 0.024 mPa·s [study B] and 2.812 ± 0.039 mPa·s [study C] and 3.11 ± 0.036 mPa·s [study D]	
O=C1CCCCC1		1.819 ± 0.023 mPa·s [study A] and 2.003 ± 0.018 mPa·s [study B] and 2.229 ± 0.019 mPa·s, 2.229 ± 0.029 mPa·s [study C] and 2.229 ± 0.051 mPa·s, 2.229 ± 0.013 mPa·s [study D]		1.799 ± 0.014 mPa·s, 1.799 ± 0.023 mPa·s [study A] and 1.799 ± 0.042 mPa·s, 1.799 ± 0.011 mPa·s [study B]		1.516 ± 0.019 mPa·s [study A] and 1.635 ± 0.011 mPa·s, 1.635 ± 0.02 mPa·s [study B] and 1.635 ± 0.038 mPa·s, 1.635 ± 0.01 mPa·s [study C]		
CC(C)CC(C)(C)C	0.476 ± 0.01 mPa·s [study A] and 0.4788 ± 0.0048 mPa·s [study B] and 0.496 ± 0.009 mPa·s [study C] and 0.4716 ± 0.0049 mPa·s [study D]			0.451 ± 0.013 mPa·s [study A] and 0.436 ± 0.013 mPa·s [study B] and 0.466 ± 0.004 mPa·s [study C] and 0.4517 ± 0.0047 mPa·s [study D]				0.405 ± 0.009 mPa·s [study A] and 0.398 ± 0.011 mPa·s [study B] and 0.4008 ± 0.0052 mPa·s [study C] and 0.3999 ± 0.0045 mPa·s [study D]
CC(=O)CC(C)C			0.515 ± 0.022 mPa·s [study A] and 0.505 ± 0.017 mPa·s [study B] and 0.497 ± 0.1 mPa·s [study C] and 0.518 mPa·s [study D]					

± gives the uncertainty stated by the source. For part of its entries the source gives two or more results. They are shown here; other results are not. There may be further records. Values that stand side by side are repeats (runs, samples, wells, individuals or studies). Brackets tell where a record comes from. Letters count within one entry. Marks such as (2×) count equal records among those shown.
